In all, about 4,000 sequences were measured (“arbitrary fluorescence units”: median about 830, highest 2% from about 6,500 on). This part holds few or none of the hits.
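Further: Full-length recombinant human RUNX1 bound to double-stranded DNA microarray spots, detected with an Alexa488-labelled secondary antibody after the anti-RUNX1 primary, read as scanned spot fluorescence.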

This assay deals with RUNX1 (UniProt Q01196). Put plainly: RUNX1 binding intensity (PBM fluorescence), RUNX1 alone (arbitrary fluorescence units); higher = stronger binding. The following applies: RUNX1 concentration 2 nM; ETS1 concentration 0 nM. The procedure: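 gcPBM on 36-bp genomic-derived probes (partner site mutated) containing one RUNX1 site and no ETS1 site. Recombinant human RUNX1 (2 nM) was incubated alone or with ETS1 (25 nM) and detected by anti-RUNX1 antibody fluorescence. Values are medians over 4 replicate spots (not normalised). The probes sit in constant array flanks that are not printed.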
Chain of UniProt Q01196 (Q01196 whole entry): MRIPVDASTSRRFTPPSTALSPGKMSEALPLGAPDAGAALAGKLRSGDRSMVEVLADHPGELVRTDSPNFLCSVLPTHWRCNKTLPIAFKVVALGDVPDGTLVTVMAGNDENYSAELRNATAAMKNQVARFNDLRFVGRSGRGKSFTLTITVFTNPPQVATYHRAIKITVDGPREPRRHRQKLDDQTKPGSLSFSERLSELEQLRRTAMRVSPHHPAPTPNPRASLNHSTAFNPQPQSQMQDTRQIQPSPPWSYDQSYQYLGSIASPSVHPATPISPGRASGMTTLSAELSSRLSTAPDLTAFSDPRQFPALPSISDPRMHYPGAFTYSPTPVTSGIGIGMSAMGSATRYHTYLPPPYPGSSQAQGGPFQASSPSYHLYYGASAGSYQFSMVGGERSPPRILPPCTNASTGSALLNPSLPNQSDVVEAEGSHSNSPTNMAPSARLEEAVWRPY
Sequence TGGTGGGTGCCCACAGAGCACTGCCGCATTCCTGAG came in with an RUNX1 binding intensity of 797.
The value for TGACATTCCCGGCCCCACCTCGGCCCGCAGCGCCGC was 906; that for TGTGATAAGGATCTTCGTGTGCCTTGTGGTCAGGTG was 846; that for GTTGCGGGCCGAAGAAGCTCATGAGGGAGACGCAGG was 831.
The value for TGAGGGACTTGCGGGCTCGGTCCTTGCTGAGAGGTG was 773.
The value for AGAAAAGGAGATGGTGGGCTGCACACCACAGCTCAC was 730; that for TTCAGTGGGTGGTTACTCGGCATGCTGTTGGGCTTC was 795.
Consider CTGCGATTTGCTGGCCTACCGTCTGGTGTGGTACCT, for which the RUNX1 binding intensity amounted to 810.
The value for ACCAAAACACACCCTGGGGCCCCACACAATTAGTGA was 812.
The value for CCGTGGTTTGTTTTACATACCCCAGCATGCTGTATG was 829; that for TAAATAGGAGGTCAGAGTTTACTGCCGAACCCACAG was 732.
The value for GCAGCGCGGGTTCAGCTCCAACCTTGCTGGAGACCC was 840; that for TGTTAATGCGGGATCTTGCTGTCCGTTCCCGAGATG was 870.
For the sequence CATTTGATGTGGTTGATTACTGCCTGCTTTAATTTT, the RUNX1 binding intensity was 1080.
The value for CAGTCTGGCCATGTGGTGCCACTTCTTCTCTGGTTT was 785; that for CCAAAAAGGATGGAAACCAGAAAGCCACAGAATGGT was 940; that for TTCTCATCTGGCCGGCTTGCTTTCCCCTGCGGTCGT was 1090.
The value for GTCGGAGATGGTGGTCACGAGCGCTTACGGGTCAGC was 704; that for ATTCGTTGCGGCAGCGCAGCAGCCACCGTACAAGCT was 775.
With TGCTCACCTCCTCTGCAGCTTTGTGGGTGCCATCAC, the RUNX1 binding intensity was found to be 826.
The value for GATATGCAGAAAACCAACCTACAGGCAGGTGAGTCA was 765; that for AAAGCTCCGCGCGGTTCCCACCCCTGAACTGCCTCT was 902.
The value for CTCAGTGTGGTTAAAGACATGCAAGGCAGCATAGAA was 1180.
The value for CTCCCGACCACCGCCGCAGCGCGGAGGGGCGTCCCC was 1020.
With CCACCCTCCGTACGGCCGCGACCGCGAGGAGGAAGA, the RUNX1 binding intensity stood at 851.
The value for GCGCTACCGGTTGCCGAGACGCGACCACACAACCAA was 791; that for TGTTTACTGCCTGGAGGCACTTTGGTTTTTCTTTCT was 1070.
The value for CGAAGAGGCTGGGTGGTAAACAGGAGGTGGGCGCTC was 776.
In turn, AGGAGCCGGGAGTCCCGCCCACGCACCCCCCGCAGG yielded an RUNX1 binding intensity of 813.
Take TGTGTCAACACCGCGGGCAGCTTACGGTGCGACTGT: the RUNX1 binding intensity came out at 698.
The value for CCGGTCGCCGCGGTCCTCTGCGCGGGATCTGGCTCT was 879; that for ACTAGATTAACCACATCCACTTACGGTGGGGCTGGA was 1400; that for CCTCTTGGTTTACTGTCCCTCACCACAAGAAGCAGT was 1260.
As to AGGGTGTTCTAACCACGAGCTCAGGCTGCTGTCTGT, the RUNX1 binding intensity worked out at 918.
The value for CTGCGGCCTGACGCCCTACGCCTACAATTCCCAGAG was 840; that for CCCCGCGGTCGTCGCGCGAACTCCTGCCGCGCGTCG was 749; that for GCCCCGCCCACAGAGGAGGGTACCCCGCCGTAAGCC was 886.
With CCCAGAGCTGCCGATTGGCTCTTCTGTGGTGGCGGG, the RUNX1 binding intensity was determined as 741.
The value for AAGTGACCGCGCGGTGCGCCGGCCCGCGAGGAGACG was 814; that for ACGTCAGCCTCCCCCGGGCTCGCGGTAAGGTGTGAG was 788.
The value for AAAACCCGGGAACCGCCGCGAACCTGAACCGCCTTC was 886; that for TGTTGGTGGTTAAAAAGCAATTTGGGACTGCCTCTT was 894.
The value for CGGCGCTCCCACCGCGAGCCGACGGGAACTGGAGTC was 911; that for TGGGTCGCGGTGGCTGTGAGGGCCGAAGAAAAGGCC was 820; that for ACATGTCCTTTTGGTATTTAAAGTAACCACACAGAA was 867.
The sequence CTGCCAACCTGTGGGCGCCTGGCTTGCTGCCTGGGC yielded an RUNX1 binding intensity of 642.
The sequence GAGCGCAGGACGGGAGCTCGGTGCGGGTGCGGCCTC had an RUNX1 binding intensity of 748.
The value for TTCTTCAATTCCTTCTCTCCGTGGTTTCGCCATTAG was 1660; that for GAGTGGGCGGAGATCCGTGCCTGGCAGACCACAAAG was 813; that for CCATTCCTGCGGCCTTCATTGCTGCATCAGGTGGAG was 895.
The value for GAACCCGGCGGTCACGGGAATAGCCGTCGCGCCGAG was 720; that for TGGGGAGGCAGCAAACGGGCCTTGTGGTTGGGGGGT was 840.
The value for ACACAGTGTTTGTGGTGAATGGCTTCAGGCCCCATA was 1080.
AACTGCGGTGGGCCCCGCCCAGTTCGAACGTCCCTG returned an RUNX1 binding intensity of 931.
The value for GACAAGATTGCGGGTGGCAACCCCATCAGGTTTGTT was 1410.
AGGCTCATTGCCTGTTTTCATGTGGTTTAGAGAAAA: the RUNX1 binding intensity came to 1030.
Consider GCGGGGCGCAGGGAGCGGGGCGAAACCACTGTTGGC, for which the RUNX1 binding intensity is 791.
The value for TGATTCTGGGACATGTCGATCGGCTGTGGGCGGCGC was 669; that for TGATGTAGAAACCGCTCGGCTTCAGGCGAGGGTGGG was 723; that for CCGGTCGGGGCCGCAGCCGCTTACGGAGCCGCGGGC was 770.
The value for AACAACCCAAAAACCAACTCGGCGGCAGGCCTTGGC was 823.
In turn, CTAATGGCGAAACCACGGAGAGAAGGAATTGAAGAA returned an RUNX1 binding intensity of 787.
CCCAGCCTGAGAAGGGACTGAGGCTGCGGCGCAGAA had an RUNX1 binding intensity of 764.

Source of the values: the supplement of paper PMC10681739.
